Results as given in PubChem BioAssay AID488969 (Vanderbilt High Throughput Screening Facility, 2010).
Whole data set: some 110,000 compounds, median “z-score” near -0.1, cut for the highest 2% near 2. The list shows a part of the results.

The compounds below were run against Metabotropic glutamate receptor 8 (Rattus norvegicus) (UniProt P70579) (assay: mGluR8 Gi/Go-coupled signaling modulation – cell-based, rat, thallium flux, HTS, primary screen (AID 488969)). Settings: HEK293 rat mGluR8, GIRK (G protein-gated inwardly rectifying potassium channel) thallium flux, FluoZin2; at 10 µM; stronger effect = higher value; submaximal glutamate (EC20) added with thallium.
Sequence of UniProt P70579 (P70579 whole entry, looked up): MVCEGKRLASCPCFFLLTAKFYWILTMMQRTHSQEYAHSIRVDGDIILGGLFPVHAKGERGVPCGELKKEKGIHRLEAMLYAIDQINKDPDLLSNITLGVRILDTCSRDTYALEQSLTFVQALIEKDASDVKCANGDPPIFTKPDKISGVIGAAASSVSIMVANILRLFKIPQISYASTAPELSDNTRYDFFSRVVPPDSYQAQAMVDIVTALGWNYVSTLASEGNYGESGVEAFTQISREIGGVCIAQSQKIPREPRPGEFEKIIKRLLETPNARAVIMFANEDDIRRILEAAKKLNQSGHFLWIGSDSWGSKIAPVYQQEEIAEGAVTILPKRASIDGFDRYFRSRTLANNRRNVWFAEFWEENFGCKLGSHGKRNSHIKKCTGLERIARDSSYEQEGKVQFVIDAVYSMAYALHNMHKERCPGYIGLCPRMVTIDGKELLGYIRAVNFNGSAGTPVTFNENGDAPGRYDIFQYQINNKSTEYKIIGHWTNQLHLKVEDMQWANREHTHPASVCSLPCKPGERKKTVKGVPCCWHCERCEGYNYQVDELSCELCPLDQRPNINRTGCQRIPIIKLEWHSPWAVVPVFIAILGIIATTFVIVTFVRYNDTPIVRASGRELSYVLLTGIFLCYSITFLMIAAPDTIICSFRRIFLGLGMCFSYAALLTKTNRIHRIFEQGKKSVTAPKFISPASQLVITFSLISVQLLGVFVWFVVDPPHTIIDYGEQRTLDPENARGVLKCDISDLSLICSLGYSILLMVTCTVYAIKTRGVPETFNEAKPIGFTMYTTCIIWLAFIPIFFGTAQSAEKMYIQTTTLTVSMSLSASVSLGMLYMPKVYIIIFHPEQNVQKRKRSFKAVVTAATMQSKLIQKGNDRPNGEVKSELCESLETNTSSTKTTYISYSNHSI
Compound `COc1cccc(-c2nc(-c3ccc(NC(=O)c4ccncc4)cc3)no2)c1` has a z-score of -0.0821. Compound `CN(CCCNC(=O)C1CCN(S(=O)(=O)N2CCC3(CC2)OCCO3)CC1)Cc1ccccc1` has a z-score of -0.136. Work on `Cc1nc(NC(=O)/C=C/c2ccccc2)sc1C(=O)Nc1ccccc1` yielded a z-score of -0.145. `Cc1ccc(NC(=O)OCC(F)(F)C(F)F)cc1NC(=O)OCC(F)(F)C(F)F` was tested, and the z-score was -1.09. `COc1ccc(-c2csc(/C(C#N)=C\c3ccc(OC)c([N+](=O)[O-])c3)n2)cc1` gave a z-score of -0.149. In the case of `CC(C)[C@H](NC(=O)OC(C)(C)C)c1nnc(SCC(=O)Nc2ccc(Br)cc2)o1`, the z-score is reported as -0.355. With `Cc1ccc2c(c1)CCCN2C(=O)c1ccco1` the z-score was -0.144. Compound `COc1ccc(NS(=O)(=O)c2cccc(NC(=O)CCC(=O)c3ccc(Cl)cc3)c2)cc1` has a z-score of 0.265. Work on `COc1ccc(NC(=O)C(C)Sc2nnc3c4c(nc(-c5ccc(OC)cc5)n23)CC(C)(C)OC4)cc1` (centres undefined) yielded a z-score of -0.127. `CC(C)CCNC(=O)CCCn1c(=O)[nH]c2ccc(Br)cc2c1=O` was tested, and the z-score was 0.655. Compound `CCOc1ccccc1-c1nnc(SCC(=O)NC2CC3CCC2C3)n1CC` (centres undefined) has a z-score of -0.246. With `COC(=O)c1sccc1NC(=O)/C=C\c1ccc(Cl)cc1Cl` the z-score was -0.187. `CCOc1ccc(NC(=O)CSc2nnc(Cc3cccn3C)n2-c2ccc(OC)cc2)cc1` was tested, and the z-score was -0.312. Work on `COc1ccc(OC)c(-n2c(SC)nnc2-c2c[nH]c3ccccc23)c1` yielded a z-score of -0.491. Work on `CCCCCCCC1(C)NC(=O)N(c2ccccc2)N1` (centres undefined) yielded a z-score of 0.742. With `CCOc1ccccc1N1C(=O)CC(N(O)c2ccccc2)C1=O` (centres undefined) the z-score was -0.0542. Compound `CCOC(=O)c1nn(-c2ccccc2)c(C(=O)OCC)c1N` has a z-score of 0.0306. `CC(C)c1nc2sc3c(NCc4ccccc4)ncnc3c2c2c1COC(C)(C)C2` gave a z-score of 0.843. With `O=C(NC(=S)Nc1cc(C(F)(F)F)ccc1N1CCOCC1)c1sc2ccccc2c1Cl` the z-score was 0.206. Work on `COc1cccc(Nc2nnc(SCC(=O)N(CC(C)C)CC(C)C)s2)c1` yielded a z-score of -0.309. For `Oc1sc(C=Nc2ccccc2)c2ccccc12`, the z-score was 0.112. In the case of `COc1ccc(OC(=O)Nc2ccccc2)cc1`, the z-score is reported as 0.225. `CNC(=S)N(Cc1cccs1)Cc1cc2ccc(OC)cc2[nH]c1=O` was tested, and the z-score was -0.16. `Cc1cc2nc(-c3ccc(SCC(=O)Nc4ccc(S(=O)(=O)N5CCCC5)cc4)nc3)[nH]c2cc1C` showed a z-score of -0.123. `O=C(CCNC(=O)c1ccc(Br)o1)NC1CCCC1` was tested, and the z-score was 0.944. In the case of `COc1ccc(N(C)C(=O)CCS(=O)(=O)c2cccc3nonc23)cc1`, the z-score is reported as -0.499. Compound `COC(=O)CCC(=O)N1CCOCCOCCN(C(=O)CCC(=O)OC)CCOCCOCC1` has a z-score of -0.0679. `CCOC(=O)CSc1nc2ccccc2c(=O)n1C` was tested, and the z-score was -0.963. Work on `CCc1cccc2c(N=O)c(O)[nH]c12` yielded a z-score of -0.394.
